Source: the supplement of paper PMC10126150
Sequences with one replicate were seen in a single cluster, so their values are uncertain.

Test system: ATP
Assay: switch fluorescence ratio, 500 uM ATP over buffer (Cy3 cluster intensity, sum of 5 cycles each) (fold (ratio)); higher = stronger signal-on switching upon ATP binding; sequences stand for … in TCGTCGGCAGCGTCAGATGTGTATAAGAGACAGTTTTTTTTTTTTTTTTTTTTTTTTT…TC
Details: aptamer strand: ATP DNA aptamer (quencher-CACCTGGGGGAGTATTGCGGAGGAAGG + anchor), 100 nM annealed; ATP concentration: 500 uM; one replicate
Summary of the method: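 Switching-strand clusters labelled with Cy3 on a modified Illumina MiSeq flow-cell were annealed to 100 nM quencher-labelled ATP aptamer, imaged in selection buffer, and re-imaged after 15 min with 500 uM ATP at 22 °C. This was done over five cycles with NaOH stripping and re-annealing in between. The fluorescence ratio is summed target-cycle over summed buffer-cycle Cy3 intensity per cluster, averaged per switch-domain sequence, excluding clusters outside 100-1000 RFU.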
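Also: ATP exposure 15 min at 22 °C before imaging.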

## TTAACGTTGC
  switch fluorescence ratio: 1.16

## GCGAACTCTT
  switch fluorescence ratio: 1

## TTCCTATTGG
  switch fluorescence ratio: 1

## TGGCTGTGCT
  switch fluorescence ratio: 0.937

## CCGTGTTACT
  switch fluorescence ratio: 3.05

## ACTTTACGTT
  switch fluorescence ratio: 1.23

## GAGTGGGACT
  switch fluorescence ratio: 0.994

## GCATTGGTAG
  switch fluorescence ratio: 1.04

## CCAGCCCCAG
  switch fluorescence ratio: 1.48

## CTCATGGAAA
  switch fluorescence ratio: 0.931

## TCAACGGCAC
  switch fluorescence ratio: 1.59

## GTCCAGGCCT
  switch fluorescence ratio: 1.02

## TACTATTGGT
  switch fluorescence ratio: 1.01

## CGCCTGATAT
  switch fluorescence ratio: 1

## CTGCATACTA
  switch fluorescence ratio: 2.31

## AAACCGACGG
  switch fluorescence ratio: 1.03

## CAGAACTGAT
  switch fluorescence ratio: 1.04

## GGCTCTCCGG
  switch fluorescence ratio: 1.05

## GCAGTGTGGT
  switch fluorescence ratio: 1.07

## GCTTGACGGC
  switch fluorescence ratio: 1.1

## AGGAGTGTG
  switch fluorescence ratio: 1.01

## CGCGTTATAG
  switch fluorescence ratio: 1.09

## AAGAGTAATC
  switch fluorescence ratio: 1

## ATTCTGCTCA
  switch fluorescence ratio: 0.988

## ATGAAATTGG
  switch fluorescence ratio: 1.03

## ACGGGGGTA
  switch fluorescence ratio: 1.01

## AGGATATTTG
  switch fluorescence ratio: 1.04

## TTTGTCTACT
  switch fluorescence ratio: 1.01

## TCACAGGACT
  switch fluorescence ratio: 1.08

## ATGATGTCGA
  switch fluorescence ratio: 0.927

## GTCCTAGCTA
  switch fluorescence ratio: 1.06

## GGATGGGGAC
  switch fluorescence ratio: 1.04

## ACTATGGGTT
  switch fluorescence ratio: 0.996

## AAGCCTACAG
  switch fluorescence ratio: 1.04

## GTCAGGGTCT
  switch fluorescence ratio: 1.01

## AGCACGAAGA
  switch fluorescence ratio: 1.05

## CCTATCCACC
  switch fluorescence ratio: 1.17

## GGTTGGTCCA
  switch fluorescence ratio: 1.04

## GTTGTCAGAA
  switch fluorescence ratio: 1.03

## ACGCTCGTGC
  switch fluorescence ratio: 1.05

## GTTGGAGTAT
  switch fluorescence ratio: 1.02

## GCGAGGTCAG
  switch fluorescence ratio: 0.971

## CATGGACCAG
  switch fluorescence ratio: 1.03

## CGGTGTTCAG
  switch fluorescence ratio: 1.05

## GAGGTCGGTG
  switch fluorescence ratio: 1.01

## TGGAAGGGAT
  switch fluorescence ratio: 0.996

## CAGATCACCC
  switch fluorescence ratio: 1.04

## CGTGAAATTT
  switch fluorescence ratio: 0.987

## AGCTTTAGTC
  switch fluorescence ratio: 1.06

## GCTAGTTTCT
  switch fluorescence ratio: 0.994

## CGGAGCGCCC
  switch fluorescence ratio: 1.15

## AGGCCACGCC
  switch fluorescence ratio: 1.66

## AGAAAGAGGC
  switch fluorescence ratio: 1.03

## TCTGTGCCAT
  switch fluorescence ratio: 1.02

## TCAGGTCGCC
  switch fluorescence ratio: 0.969

## AGTTGTGTAA
  switch fluorescence ratio: 1.02

## TCGAGATGAC
  switch fluorescence ratio: 1.06

## TGACTACTCT
  switch fluorescence ratio: 1.02

## GTTTATTGTG
  switch fluorescence ratio: 1.01

## GAGCTGAGGG
  switch fluorescence ratio: 0.992

## GGATCTAAGG
  switch fluorescence ratio: 1.03

## TATGAAGTAA
  switch fluorescence ratio: 0.997

## ATCGGATGGT
  switch fluorescence ratio: 1.03

## AGCCTAAATG
  switch fluorescence ratio: 1.04

## GTGCGAGCCG
  switch fluorescence ratio: 1.01

## TGCAGGTTCT
  switch fluorescence ratio: 0.998

## TCATACTCAG
  switch fluorescence ratio: 1.03

## AAGAGTAAAT
  switch fluorescence ratio: 1.02

## ATTACAAGCC
  switch fluorescence ratio: 1.01

## CTATTGTAAG
  switch fluorescence ratio: 0.988

## CATGAGAGTG
  switch fluorescence ratio: 0.954

## AGTGCGATTG
  switch fluorescence ratio: 0.974

## GCGGCCCAG
  switch fluorescence ratio: 1.01

## AGGTACGCCA
  switch fluorescence ratio: 1.03

## ATTAAGAGCA
  switch fluorescence ratio: 1.03

## TCTTGGAGGA
  switch fluorescence ratio: 1.03

## TTCAGCCCTG
  switch fluorescence ratio: 1.04

## CGCTGCTGCC
  switch fluorescence ratio: 1.04

## AGGCTGTTGT
  switch fluorescence ratio: 0.99

## CGTGAACATG
  switch fluorescence ratio: 1.02

## CGCGAGGGTG
  switch fluorescence ratio: 1.19

## TTAATTACAA
  switch fluorescence ratio: 0.982

## TAGTCCGTCG
  switch fluorescence ratio: 1.12

## TACACAAGGG
  switch fluorescence ratio: 1.06

## GTGTTTTAAC
  switch fluorescence ratio: 0.955

## ATCCCCTGTG
  switch fluorescence ratio: 1.83

## CGACACCATT
  switch fluorescence ratio: 1.55

## CGACGCTACG
  switch fluorescence ratio: 1.96

## TTGGTTCAA
  switch fluorescence ratio: 0.99

## AAAACGTTAT
  switch fluorescence ratio: 1.05

## AGACAGCGTT
  switch fluorescence ratio: 1.01

## ACCGTGCTCG
  switch fluorescence ratio: 1.06

## CCAGCTGAGG
  switch fluorescence ratio: 0.982

## ATGTAGTGG
  switch fluorescence ratio: 0.976

## TGAACCCCGA
  switch fluorescence ratio: 1

## TGGACCCATG
  switch fluorescence ratio: 1.04

## GTTGAGAAAA
  switch fluorescence ratio: 0.987

## GAAATGCGTC
  switch fluorescence ratio: 1.05

## CCGGCCGGAC
  switch fluorescence ratio: 1.04

## TATGTTCTGC
  switch fluorescence ratio: 0.991

## GCAACTAGCG
  switch fluorescence ratio: 1.05

## TAATTTTACC
  switch fluorescence ratio: 1.08

## TAGTGTGCGC
  switch fluorescence ratio: 1.03

## CCCCGGAAAG
  switch fluorescence ratio: 1.19

## GGCGAGACGA
  switch fluorescence ratio: 1.06

## TTAGGTAGAC
  switch fluorescence ratio: 1.05

## AACGAATGAG
  switch fluorescence ratio: 0.983

## TTCCTGTTCT
  switch fluorescence ratio: 1.26

## GAAATGGTAA
  switch fluorescence ratio: 1.04

## AGCTAGGGAC
  switch fluorescence ratio: 1.06

## ACAGAGGCTT
  switch fluorescence ratio: 1.03

## GCCATACAAC
  switch fluorescence ratio: 1.09

## CTTCTAGGGA
  switch fluorescence ratio: 1

## GCTAGGAATG
  switch fluorescence ratio: 1.03

## AACAGGTCAG
  switch fluorescence ratio: 0.995

## TGTTATAGGA
  switch fluorescence ratio: 1.01

## TCCGGCACGG
  switch fluorescence ratio: 1

## CGGGGGTATC
  switch fluorescence ratio: 0.988

## CTTGTGGACC
  switch fluorescence ratio: 1.02

## CGACCCGAGG
  switch fluorescence ratio: 1.2

## TGTAGGAGAA
  switch fluorescence ratio: 1

## ACCAATGGAT
  switch fluorescence ratio: 1.03

## AGCTGTTTAA
  switch fluorescence ratio: 0.981

## TCTTCTCACC
  switch fluorescence ratio: 1.01

## TTAATGAGAT
  switch fluorescence ratio: 0.994

## TCGTACTAGG
  switch fluorescence ratio: 0.984

## GATGGGTTT
  switch fluorescence ratio: 0.986

## GATGGACCGC
  switch fluorescence ratio: 1.05

## GCGCGAGTCG
  switch fluorescence ratio: 1.02

## TTCTGCAAAT
  switch fluorescence ratio: 1.37

## AGGTAGTACT
  switch fluorescence ratio: 1.05

## GAGATTGTCG
  switch fluorescence ratio: 1.05

## ATATAAGTGG
  switch fluorescence ratio: 1.03

## TCACATCACT
  switch fluorescence ratio: 1.32

## GGGCAGGCTA
  switch fluorescence ratio: 0.994

## ATATAGGAGA
  switch fluorescence ratio: 1.04

## TAGCGATTG
  switch fluorescence ratio: 1.45

## CTGATCAGTG
  switch fluorescence ratio: 1.01

## TTATCAGG
  switch fluorescence ratio: 0.984

## TATACAGGGT
  switch fluorescence ratio: 1

## GCATAGATTT
  switch fluorescence ratio: 0.988

## GAGGCATAGT
  switch fluorescence ratio: 1.18

## TTATGCGTGG
  switch fluorescence ratio: 1.05

## CGTGGGACTT
  switch fluorescence ratio: 0.987

## CTGTGCTGCG
  switch fluorescence ratio: 0.931

## GTGGTTGAAT
  switch fluorescence ratio: 0.99

## CTGTGGTGC
  switch fluorescence ratio: 1.08

## GGGTGCCATT
  switch fluorescence ratio: 0.991

## AGATTCTATC
  switch fluorescence ratio: 1.01

## GGGTCGCTCA
  switch fluorescence ratio: 0.979

## GGACGGGCGC
  switch fluorescence ratio: 0.925

## TGGATCGAT
  switch fluorescence ratio: 0.993

## TTATGTTGTA
  switch fluorescence ratio: 0.983

## TATACCCATC
  switch fluorescence ratio: 1.09

## GGCGATTTTC
  switch fluorescence ratio: 0.976

## GAAGCTGATA
  switch fluorescence ratio: 1.06

## GGGCTGAATT
  switch fluorescence ratio: 1
